Structures are written as SMILES. About 550 (1.1%) of roughly 48,000 compounds were called active. About 4% were inconclusive and are not listed. Rule as the data show it: active = potency below about 15 µM; inconclusive = mostly about 16 µM to 33 µM; inactive = weaker than that. Some of the results follow.

The results in this text go back to PubChem BioAssay AID360 (National Center for Advancing Translational Sciences (NCATS), 2006).
Potency is read from the fitted curve at half-maximal effect.

The test deals with Lysosomal acid glucosylceramidase (Homo sapiens) (UniProt P04062). Kind of test: Glucocerebrosidase.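 Also: the screen sought inhibitors.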 The conditions noted are these: purified enzyme, resorufin glucoside fluorescence (screen aimed at inhibitors), 20 min; series mostly up to 77 µM. The procedure, abridged: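 Normal human glucocerebrosidase (0.2 nM final) was assayed with resorufin β-D-glucopyranoside (30 uM final) in 50mM citric acid/KH2PO4, 10mM sodium taurocholate, 0.01% tween-20, pH 5.9. Compounds were titrated; fluorescence (Ex 548, Em 600) read after 20 min at RT.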
Chain of UniProt P04062 (P04062 whole entry, looked up): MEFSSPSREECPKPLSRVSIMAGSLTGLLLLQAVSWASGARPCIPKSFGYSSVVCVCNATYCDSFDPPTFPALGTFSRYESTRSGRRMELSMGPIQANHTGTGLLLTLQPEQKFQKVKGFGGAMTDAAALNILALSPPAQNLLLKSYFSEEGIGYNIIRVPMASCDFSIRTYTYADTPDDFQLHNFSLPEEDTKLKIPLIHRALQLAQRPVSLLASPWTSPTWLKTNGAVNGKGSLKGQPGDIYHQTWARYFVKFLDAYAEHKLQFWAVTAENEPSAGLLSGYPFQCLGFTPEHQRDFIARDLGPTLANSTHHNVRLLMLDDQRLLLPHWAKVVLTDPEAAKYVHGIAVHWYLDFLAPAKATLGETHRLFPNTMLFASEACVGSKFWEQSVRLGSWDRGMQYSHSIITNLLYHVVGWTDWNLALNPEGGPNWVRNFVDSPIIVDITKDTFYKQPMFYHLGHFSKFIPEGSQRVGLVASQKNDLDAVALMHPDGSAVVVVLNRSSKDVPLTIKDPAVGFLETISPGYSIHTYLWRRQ
Turning to `Cn1c(=O)n(CC(=O)N2CCOCC2)c2ccccc21`, the Potency was inactive: > 76.9 µM.
As for `CCOc1ccc2nc(NS(C)(=O)=O)sc2c1`, the figure is inactive: > 76.9 µM; as for `CCC1(C)Nc2ccccc2C(=O)N1O` (stereo not drawn), inactive: > 76.9 µM; as for `O=S1(=O)N=CN(Cc2cccc(F)c2)c2ccccc21`, inactive: > 76.9 µM.
For `CCOc1ccc2nc(SCC(=O)NCc3ccco3)sc2c1`, the Potency is inactive: > 76.9 µM.
`Cc1cc(NC(=O)COC(=O)C2CCCN2C(=O)c2cccs2)no1` (stereo not drawn): the Potency was inactive: > 76.9 µM.
Regarding `CC(=O)Nc1ccc(Oc2nc(C)cc(C)n2)cc1`, the Potency was inactive: > 76.9 µM.
On to `Cc1ccnc(NC(=O)CCC(=O)N(CC(=O)NCC2CCCO2)Cc2ccc(F)cc2)c1` (stereo not drawn), for which the Potency was inactive: > 76.9 µM.
As for `COc1ccc(CN2CCN(c3ccccn3)CC2)cc1OCc1ccccc1`, the figure is inactive: > 76.9 µM.
On to `CCCOc1ccccc1Nc1nnc(C)c(=O)[nH]1`, for which the Potency was inactive: > 76.9 µM.
Take `COc1ccc(-c2cc(C(=O)Nc3cc(OC)c(OC)c(OC)c3)no2)cc1OC`: the Potency is inactive: > 76.9 µM.
As for `Cc1ccc(S(=O)(=O)N2CCCC2C(=O)N(C)Cc2cccs2)cc1` (stereo not drawn), the figure is inactive: > 76.9 µM.
In the case of `c1ccc(CNc2nc3ccccc3n2CCN2CCOCC2)nc1` it was inactive: > 76.9 µM; in that of `CCCN1CCC(NC(=O)Nc2ccc(OC)c(OC)c2)CC1`, inactive: > 76.9 µM.
In the case of `CCOC(=O)C1CCCN(S(=O)(=O)c2ccc(Br)s2)C1` (stereo not drawn) it was inactive: > 76.9 µM; in that of `CCOCCCNC(=O)c1c(C)[nH]c(C(=O)OCC)c1C`, inactive: > 76.9 µM; in that of `CCN(CC)S(=O)(=O)c1cccc(C(=O)Oc2cccnc2)c1`, inactive: > 76.9 µM.
Turning to `CCOC(=O)CCc1nc2ccccc2[nH]c1=O`, the Potency was inactive: > 76.9 µM.
Take `CCOC(=O)c1sc(C)c(C(=O)NCCCN2CCOCC2)c1N`: the Potency was inactive: > 76.9 µM.
In the case of `COC(=O)CCn1nnc(-c2cccs2)n1` it was inactive: > 76.9 µM.
As for `COCCNC(=O)CCCCCN1C(=O)CCC1=O`, the figure is inactive: > 76.9 µM; as for `O=C(c1cnccn1)N1CCc2ccccc21`, inactive: > 76.9 µM.
Turning to `COc1cc(N/C(=N/S(=O)(=O)c2ccccc2)c2ccccc2)ncn1`, the Potency is inactive: > 76.9 µM.
In the case of `O=C(c1c(F)cccc1F)N1CCN(c2ccccc2F)CC1` it was inactive: > 76.9 µM; in that of `CC(=O)NC(Cc1ccc(F)cc1)C(=O)O` (stereo not drawn), inactive: > 76.9 µM; in that of `CCCCC(CC)C(=O)NCc1ccccc1OC` (stereo not drawn), inactive: > 76.9 µM.
In the case of `CC(=O)CC(=O)NC(=NC1CCCCC1)Nc1nc(C)cc(C)n1` it was “inactive”; in that of `CC1CN(Cc2nc3c(c(=O)n(C)c(=O)n3C)n2CC(O)CO)CC(C)O1` (stereo not drawn), inactive: > 76.9 µM; in that of `O=C(COC(=O)CNS(=O)(=O)/C=C/c1ccccc1)NC1CCS(=O)(=O)C1` (stereo not drawn), inactive: > 76.9 µM.
Turning to `CCC(C)NC(=O)CCCCCn1c(=O)[nH]c2cc(OC)c(OC)cc2c1=O` (stereo not drawn), the Potency was inactive: > 76.9 µM.
As for `CCS(=O)(=O)c1nc2ccccc2n1CC(=O)N1CCCCC1`, the figure is inactive: > 76.9 µM; as for `Cc1ccc(C)c(N(C)S(=O)(=O)c2cccc3nsnc23)c1`, inactive: > 76.9 µM.
In the case of `O=C(CCc1nc(-c2ccccc2)no1)N1CCCC1`, the Potency is inactive: > 76.9 µM.
For `COc1ccc(-c2ncc3ccccn23)cc1`, the Potency entry was “inactive”.
In the case of `C=C(C)CSc1nnc([C@H](CCSC)NC(=O)OC(C)(C)C)o1` it was inactive: > 76.9 µM.
As for `CCC1CCCCN1CCCNC(=O)CNC(=O)Cn1ccc2ccccc2c1=O` (stereo not drawn), the Potency is inactive: > 76.9 µM.
On to `COC(=O)Cc1c(C)nc2nc(-c3cccnc3)[nH]n2c1=O`, for which the Potency is inactive: > 76.9 µM.
In the case of `CCNC(=O)NC(=O)C(C)OC(=O)c1cccnc1SC` (stereo not drawn) it was inactive: > 76.9 µM; in that of `CCCC(c1nnnn1C1CCCCC1)N1CCN(c2ncccn2)CC1` (stereo not drawn), inactive: > 76.9 µM; in that of `O=S(=O)(Nc1cccnc1)c1ccc2c(c1)OCCO2`, inactive: > 76.9 µM.
In the case of `Cc1cccnc1NC(=O)COc1ccc2oc3c(c2c1)CCCC3` it was inactive: > 76.9 µM.
In the case of `CCN(Cc1ccncc1)C(=O)c1cccc(S(=O)(=O)N2CCOCC2)c1` it was inactive: > 76.9 µM; in that of `CCCCC(c1nnnn1C1CCCC1)N1CCN(C2CCCCC2)CC1` (stereo not drawn), inactive: > 76.9 µM; in that of `O=C(CN1C(=O)C2(OCCCO2)c2ccccc21)NCc1ccccc1`, inactive: > 76.9 µM.
For the compound `OCCNc1nc(N2CCN(Cc3ccccc3)CC2)nc2ccccc12`, the Potency was active: 13.2 µM.
In the case of `O=C(COC(=O)CSCC(=O)N1CCCCC1)Nc1ccc(Cl)cc1` it was inactive: > 76.9 µM; in that of `O=C(OCCN1CCCC1)C1(c2ccccc2)CCCC1`, inactive: > 76.9 µM.
In the case of `COc1ccc(N(C(C)C(=O)NCc2ccco2)S(C)(=O)=O)cc1` (stereo not drawn) it was inactive: > 76.9 µM; in that of `COC(=O)c1sccc1NC(=O)c1ccc(OC)cc1`, inactive: > 76.9 µM.
In the case of `CC1Cc2ccccc2N1C(=O)COC(=O)Cn1nnc(-c2ccccc2)n1` (stereo not drawn) it was inactive: > 76.9 µM.
Take `CCOc1ccccc1NS(=O)(=O)c1ccc(Br)s1`: the Potency was inactive: > 76.9 µM.
In the case of `COc1cc2c(cc1O)C(SC)=NC(C)(C)C2` it was inactive: > 76.9 µM; in that of `COc1cc(C(=O)NCc2ccc(-c3nc4ccccc4o3)cc2)cc(OC)c1OC`, inactive: > 76.9 µM.
As for `COc1ccc(NC(=O)CS(=O)CC(=O)Nc2ccc(OC)c(OC)c2)cc1` (stereo not drawn), the figure is inactive: > 76.9 µM.
As for `Cc1[nH]nc2c1C(c1ccc(Cl)cc1)C(C#N)=C(N)O2` (stereo not drawn), the figure is inactive: > 76.9 µM; as for `Cc1ccc(-c2nnc(SCC(=O)N3CCCC3)o2)cc1`, inactive: > 76.9 µM; as for `COc1ccc(CC(=O)Nc2c3c(nn2-c2cccc(Cl)c2)CS(=O)(=O)C3)cc1`, inactive: > 76.9 µM.
Take `Cn1c(=O)c2c(nc(SCC(=O)Nc3ccc(N4CCOCC4)c(Cl)c3)n2C)n(C)c1=O`: the Potency was inactive: > 76.9 µM.
In the case of `O=C(O)CSc1nnc(-c2ccccc2)o1` it was inactive: > 76.9 µM.
`Cc1ccc(-c2nn3c(C)nnc3c3ccccc23)cc1S(=O)(=O)N1CCN(CCO)CC1`: the Potency is inactive: > 76.9 µM.
Turning to `Cc1sc(-n2cccc2)c(C(=O)O)c1C`, the Potency was inactive: > 76.9 µM.
In the case of `Cc1c(N(C)C(=O)c2ccco2)c(=O)n(-c2ccccc2)n1C`, the Potency is inactive: > 76.9 µM.
In the case of `COc1ccc(C)cc1S(=O)(=O)Nc1ccc(F)cc1` it was inactive: > 76.9 µM; in that of `Fc1ccc2c(Cl)c(-c3nnc(-c4cccs4)o3)sc2c1`, inactive: > 76.9 µM.
As for `Cc1cc(Oc2ccc(Cl)cc2)nc(-c2ccccc2O)n1`, the Potency was inactive: > 76.9 µM.
As for `CCOC(=O)C(C)Oc1ccc(C2NC(=O)NC(C)=C2C(C)=O)cc1Br` (stereo not drawn), the figure is inactive: > 76.9 µM; as for `CC1(c2ccccc2)NC(=O)N(CC(=O)Nc2cccc(C#N)c2)C1=O` (stereo not drawn), inactive: > 76.9 µM; as for `COCCn1c(SCC(=O)Nc2cccc(OC)c2)nnc1-c1ccccc1`, inactive: > 76.9 µM.
Consider `O=C1CC(c2ccncc2)c2cc3c(cc2N1)OCO3` (stereo not drawn), for which the Potency was inactive: > 76.9 µM.
In the case of `NS(=O)(=O)c1ccc(CNC(=O)NC23CC4CC(CC(C4)C2)C3)cc1` it was inactive: > 76.9 µM.
In the case of `O=C(O)C1C2C=CC(C2)C1C(=O)NCc1ccoc1` (stereo not drawn) it was inactive: > 76.9 µM; in that of `CCN1CCN(c2ccc(NC(=O)COc3ccccc3Cl)cc2)CC1`, active: 15.2 µM.
For `O=C(c1ccco1)N1CCN(Cc2nnnn2CCc2ccccc2)CC1`, the Potency was inactive: > 76.9 µM.
As for `CN(Cc1ccccc1)c1nc2c(c(=O)[nH]c(=O)n2C)n1C`, the figure is inactive: > 76.9 µM; as for `CC(C(=O)N1CCc2ccccc21)N1CCc2ccccc2C1` (stereo not drawn), inactive: > 76.9 µM.
In the case of `COc1cccc(NC(=O)N[C@@H](Cc2ccccc2)C(=O)O)c1` it was inactive: > 76.9 µM; in that of `COC(=O)c1[nH]c2cccc(C)c2c1NC(=O)CN1CCCc2ccccc21`, inactive: > 76.9 µM; in that of `COc1ccc(S(=O)(=O)N2CCCC(C(=O)Nc3ccc(OC)c(OC)c3)C2)cc1` (stereo not drawn), inactive: > 76.9 µM.
In the case of `Cc1cc(C(=O)Nc2ccc(N3CCOCC3)cc2)c2ccccc2n1` it was inactive: > 76.9 µM; in that of `CCOC(=O)N1CCN(C(=O)CSc2nnc(-c3ccccc3OC)o2)CC1`, inactive: > 76.9 µM.
On to `CCCCNC(=O)c1cc2c(=O)n3cccc(C)c3nc2n(Cc2ccncc2)c1=N`, for which the Potency was inactive: > 76.9 µM.
As to `COc1ccc(C2=NO[C@@H]3C(=O)N(c4ccc(C)cc4C)C(=O)[C@H]23)cc1OC`, the Potency is inactive: > 76.9 µM.
With `COc1ccccc1NC(=O)N(c1c(N)n(Cc2ccccc2)c(=O)[nH]c1=O)C1CCCC1`, the Potency was inactive: > 76.9 µM.
As for `Cc1cc(C)n(-c2c(F)c(F)c(CN3CCOCC3)c(F)c2F)n1`, the figure is inactive: > 76.9 µM; as for `Cn1c(=O)oc2cc(S(=O)(=O)NCc3ccncc3)ccc21`, inactive: > 76.9 µM; as for `Cc1ccc(CN2C(=O)CCC2C(=O)NCc2ccc3c(c2)OCO3)cc1` (stereo not drawn), inactive: > 76.9 µM.
In the case of `COc1nc(N2CCCCCC2)nc(N2CCCCCC2)n1` it was inactive: > 76.9 µM.
As for `CCSc1nnc(NC(=O)c2ccccn2)s1`, the figure is inactive: > 76.9 µM.
As to `O=S(=O)(N1CCCCC1)N1CCN(c2ccc(F)cc2)CC1`, the Potency was inactive: > 76.9 µM.
In the case of `COc1ccc(C(=O)NCCc2nnc(SCC(=O)Nc3ccccc3)n2C)cc1` it was inactive: > 76.9 µM; in that of `COCc1nnc(NC(=O)CCCCCN2C(=O)c3ccccc3C2=O)s1`, inactive: > 76.9 µM; in that of `CCOc1ccc(N2C(=O)CC(N3CCC(NC(=O)Nc4ccccc4)CC3)C2=O)cc1` (stereo not drawn), inactive: > 76.9 µM.
Take `CCOC(=O)NC(=O)COC(=O)Cc1cc(OC)c(OC)c(OC)c1`: the Potency is inactive: > 76.9 µM.
